Measurements from PubChem BioAssay AID686978 (National Center for Advancing Translational Sciences (NCATS), 2013).
“And” between values parts separate entries of the source, which are not always exact repeats. Identical values can stand only once. In all, about 420,000 compounds went through this assay and about 64,000 (15%) were called active. This list was built around the results that the source calls inconclusive (neither active nor inactive); the mix of calls is not that of the screen. Calls follow the shape of the dose curve; as a rule, active = well fitted inhibition curve with a large enough effect; inconclusive = small, poorly fitted or top-dose-only effect; inactive = flat fitted curve, though single readings scatter. Potencies beside an inconclusive call are fits to weak or partial responses and may not hold up.
% is scaled to controls: 0 for no effect and ±100 for the full control effect; potency is read from the fitted curve at half-maximal effect; tags tell the direction and shape of the fitted curve.

Test: qHTS for Inhibitors of human tyrosyl-DNA phosphodiesterase 1 (TDP1): qHTS in cells in absence of CPT; also: nearly all actives have a fitted effect of over 55% in size
Details: DT40 Tdp1-/- hTDP1 cells, no CPT, ATP luminescence, 48 h; activity change, negative = growth inhibition: at 46.2 µM (top of the series) unless noted
Summary of the method: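 Chicken DT40 Tdp1-/- cells stably complemented with human TDP1 were seeded at 400 cells/well with DMSO in place of 20 nM camptothecin. After compound pinning, cells grew at least 48 hr at 37 °C; viability read by CellTiter-Glo luminescence.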
For `Cc1cccc(C)c1OCC(=O)Nc1oc(-c2ccccc2)c(-c2ccccc2)c1C#N`, the Potency was inconclusive: 29.1 µM [inhibitor, single point].
For `CCOC(=O)c1c(C)[nH]c(C2=NNC(=Nc3ccc(OCC)cc3)SC2)c1C`, the Potency was active: 16.4 µM.
With `c1ccc(-c2cn(-c3ccccc3)c3ncnc(N4CCN(c5ccccc5)CC4)c23)cc1` the Potency was inconclusive: 9.2 µM [inhibitor, partial curve].
With `COc1cc(NC(=S)NC(=O)c2cccs2)ccc1NC(=O)C(C)C` the Potency was inconclusive: 29.1 µM [inhibitor, single point].
For `COc1ccc2cc(C(=O)c3ccccc3)c(=O)oc2c1`, the “activity change, negative = growth inhibition” value was inactive: -9.01%.
With `COc1ccc(OC)c(NC(=O)CSc2n[nH]c(-c3ccccc3Cl)n2)c1` the Potency was inconclusive: 20.6 µM [inhibitor, single point].
With `COc1ccc(S(=O)(=O)N(CC(=O)Nc2cc(C)on2)Cc2ccccc2)cc1` the Potency was inconclusive: 29.1 µM [inhibitor, single point].
With `CC1CCN(C(=O)CSc2c3c(nc4cc(Cl)ccc24)CCCC3)CC1` the Potency was inconclusive: 20.6 µM [inhibitor, single point].
In the case of `C/C(CC(=O)NC(C)(C)C)=N\NC(N)=S`, the Potency is reported as inconclusive: 29.1 µM [inhibitor, single point].
In the case of `COc1ccc(C2CC(c3ccc(C)o3)=NN2C(C)=O)cc1` (centres undefined), the “activity change, negative = growth inhibition” value is reported as inactive: -16.2%.
In the case of `CCOc1cc(C=O)cc(Cl)c1OCC(N)=O`, the Potency is reported as active: 18.4 µM.
With `COc1ccc(Br)c2c1-c1nc(NC(=O)c3cccc(C)c3)sc1C2` the Potency was active: 23.1 µM.
With `c1ccc(-c2oc3ncnc(NCCCn4ccnc4)c3c2-c2ccccc2)cc1` the Potency was active: 18.4 µM.
For `C[C@@]12C(=O)Nc3cc(Cl)ccc3C(=O)N1[C@H]1c3cc(Cl)ccc3OC[C@@H]1[C@@H]2c1ccccc1`, the Potency was inconclusive: 29.1 µM [inhibitor, single point].
For `CCOC(=O)C1=C(c2ccccc2)N=C2SCC(=O)N2C1c1ccc2c(c1)OCO2` (centres undefined), the “activity change, negative = growth inhibition” value was inactive: -19.9%.
In the case of `Cc1[nH]n(-c2ccc([N+](=O)[O-])cc2)c(=O)c1C=NCCc1ccc(S(N)(=O)=O)cc1`, the Potency is reported as inconclusive: 9.2 µM [inhibitor, partial curve].
With `C=CCNc1nc(-c2sc(NC(=O)C(C)(C)C)nc2C)c(-n2cc(-c3ccccc3)nn2)s1` the Potency was active: 14.6 µM.
In the case of `COc1cc(OC)c(C2=NOC(C(=O)NCc3cccs3)C2)cc1Cl` (centres undefined), the Potency is reported as active: 2.31 µM.
With `O=C(CCCn1c(SCC(=O)Nc2ccccc2Cl)nc2ccccc2c1=O)NCC1CCCO1` (centres undefined) the Potency was inconclusive: 25.9 µM [inhibitor, single point].
With `CCN1/C(=C2/SC(=S)N(NC(C)=O)C2=O)Sc2ccc(OC)cc21` the Potency was inconclusive: 29.1 µM [inhibitor, single point].
With `CC(=O)c1ccc(NC(=O)CSc2cn(CC(=O)N3CCCCC3)c3ccccc23)cc1` the Potency was active: 20.6 µM.
In the case of `Cc1c(O)cnc2nn(-c3ccccc3)c(=N)n12`, the “activity change, negative = growth inhibition” value is reported as inactive: -7.05%.
For `CC1CCCCN1CCNC(=O)C1CCCN(c2ncnc3c2nc2n3CCCCC2)C1` (centres undefined), the “activity change, negative = growth inhibition” value was inactive: -27.4%.
In the case of `N#Cc1ccc(CN2CCC3(CC2)CCN(C(=O)c2cccc(F)c2)CC3)cc1`, the Potency is reported as inconclusive: 13 µM [inhibitor, partial curve, poor fit].
For `NC(=O)CC(NC(=O)c1ccc(Br)cc1)c1ccc(N2CCN(c3ccccc3)CC2)c([N+](=O)[O-])c1` (centres undefined), the Potency was inconclusive: 11.6 µM [inhibitor, partial curve].
In the case of `COc1ccc(CC(=O)O/N=C(\N)Cc2cccc3ccccc23)cc1OC`, the Potency is reported as inconclusive: 13 µM [inhibitor, partial curve].
For `CCc1ccc(NC(=O)C2CCN(c3nnc(-n4c(C)ccc4C)s3)CC2)cc1`, the Potency was active: 23.1 µM.
For `Cc1ccccc1NCC(=O)N/N=C\c1ccc2c(c1)OCO2`, the activity change, negative = growth inhibition was inconclusive: -39.2% [inhibitor].
For `O=C(NCCCN1CCN(CCCNC(=O)c2ccc3c(c2)OCO3)CC1)c1ccc2c(c1)OCO2`, the “activity change, negative = growth inhibition” value was inactive: -15.8%.
With `COc1ccc(F)cc1S(=O)(=O)NCCc1csc(-c2ccc(Cl)cc2)n1` the Potency was inconclusive: 29.1 µM [inhibitor, single point].
With `CCOc1ccc(-c2cn(-c3ccc(OC)cc3)c(SCC(=O)Nc3ccccc3Cl)n2)cc1` the Potency was inconclusive: 18.4 µM [inhibitor, single point].
With `Cc1cc(S(=O)(=O)N2CCN=C2c2ccccc2)c(Cl)cc1Cl` the Potency was inconclusive: 29.1 µM [inhibitor, single point].
For `O=C(NC(=S)N1CCOCC1)C12CC3CCC(CC(C3)C1)C2`, the Potency was inconclusive: 18.4 µM [inhibitor, single point].
In the case of `Cc1ccc(S(=O)(=O)N2CCOCC2)cc1C(=O)OCC(=O)c1ccc[nH]1`, the “activity change, negative = growth inhibition” value is reported as inactive: -11.9%.
In the case of `COc1ccc(S(=O)(=O)N2CCCCCC2)cc1C(=O)Nc1ccccn1`, the “activity change, negative = growth inhibition” value is reported as inactive: -8.18%.
With `Cc1ccc(-n2ncc3c2ncn2nc(-c4ccco4)nc32)c(C)c1` the Potency was inconclusive: 29.1 µM [inhibitor, single point].
In the case of `COc1ccc(Oc2ccc(NC(=O)c3ccccc3C)cc2)cc1`, the Potency is reported as active: 20.6 µM.
For `CCc1nc2ccc(C(=O)NCCOc3ccc(OC)cc3)cn2c1N(C)C(=O)COc1ccccc1`, the “activity change, negative = growth inhibition” value was inactive: 4.36%.
In the case of `COc1ccc(C2C3=C(CCCC3=O)NC3=C2C(=O)c2ccccc23)cc1` (centres undefined), the Potency is reported as inconclusive: 23.1 µM [inhibitor, single point].
For `COc1ccc2[nH]c3c(c2c1)CCN1C(=O)N([C@@H](C)C(=O)NC2CCCCC2C)C(=O)[C@]31C` (some centres undefined), the Potency was inconclusive: 23.1 µM [inhibitor, single point].
In the case of `COc1cc2c(cc1OC)/C(=C/C(=O)c1ccc([N+](=O)[O-])c(C)c1)NCC2`, the Potency is reported as inconclusive: 25.9 µM [inhibitor, single point].
In the case of `Cc1ccc(CCNC(=O)CN2CCN(Cc3ccccc3F)C2=O)cc1`, the Potency is reported as inconclusive: 23.1 µM [inhibitor, single point].
In the case of `O=C(COc1ccc(Cl)cc1Br)Nc1cccc(S(=O)(=O)N2CCCC2)c1`, the Potency is reported as inconclusive: 29.1 µM [inhibitor, single point].
For `O=C(NC(NC(=S)Nc1ccccc1C(=O)O)C(Cl)(Cl)Cl)c1ccco1` (centres undefined), the “activity change, negative = growth inhibition” value was inactive: -1.8%.
With `CC(C)[C@H](NC(=O)C1CCN(C(=O)[C@@H]2CCCN2)CC1)C(=O)NCc1ccc(F)cc1` the “activity change, negative = growth inhibition” value was inactive: -5.27%.
In the case of `Clc1ccc(-c2noc(CN(Cc3ccccn3)CC3CCCO3)n2)cc1` (centres undefined), the Potency is reported as active: 16.4 µM.
With `Cc1cc(C)c(S(=O)(=O)NCCc2cc3c(C)ccc(C)c3[nH]c2=O)c(C)c1` the Potency was active: 3.66 µM.
With `COc1ccccc1/C=C1\SC(=O)N(CCC(=O)NNC(=O)c2ccccc2Cl)C1=O` the “activity change, negative = growth inhibition” value was inactive: -7.6%.
With `Cc1ccc(C(=O)N2CC(=O)Nc3ccc(F)cc3C2c2ccc(F)cc2)cc1[N+](=O)[O-]` (centres undefined) the Potency was inconclusive: 23.1 µM [inhibitor, partial curve].
In the case of `CC(C)(C)NS(=O)(=O)c1ccc(NC(=O)C2CC(=O)N(CCc3ccc(F)cc3)C2)cc1` (centres undefined), the “activity change, negative = growth inhibition” value is reported as inactive: -4.7%.
For `CC(C)NC(=O)c1ccc(CSCc2ccccc2Cl)o1`, the Potency was inconclusive: 25.9 µM [inhibitor, single point].
In the case of `COC(=O)c1cc2c(N)c(C(=O)c3ccccc3)sc2nc1C(OC)OC`, the Potency is reported as inconclusive: 16.4 µM [inhibitor, partial curve].
With `CC(Nc1cc(N2CCN(S(=O)(=O)N(C)C)CC2)ccc1[N+](=O)[O-])c1ccccc1` (centres undefined) the “activity change, negative = growth inhibition” value was inactive: 4.12%.
In the case of `CCCN(C(=O)c1ccc(N(C)S(=O)(=O)c2ccc(C)cc2)cc1)C1CCS(=O)(=O)C1` (centres undefined), the Potency is reported as inconclusive: 23.1 µM [inhibitor, single point].
In the case of `CN(C)c1ccc(/C=C/c2c3ccccc3cc[n+]2[O-])cc1`, the Potency is reported as inconclusive: 25.1 µM [inhibitor, single point].
With `CCCCc1c(-c2ccccc2Br)ncn1CCc1ccccc1OC` the Potency was active: 20.6 µM.
With `CCC1CCCCN1CCCNC(=O)c1cn(CC)c2ccc(S(=O)(=O)N3CCc4ccccc4C3)cc2c1=O` (centres undefined) the Potency was inconclusive: 23.1 µM [inhibitor, single point].
For `CCCC(=O)NCCc1nc2ccccc2n1Cc1c(F)cccc1Cl`, the Potency was active: 14.6 µM.
With `O=C(CSc1nnc(-c2ccc([N+](=O)[O-])cc2)o1)Nc1ccccn1` the “activity change, negative = growth inhibition” value was inactive: -7.37%.
With `C[C@]12CCC(=O)C[C@@H]1CC[C@@H]1[C@@H]2CC[C@]2(C)[C@@H](C(=O)COC(=O)CCC(=O)O)CC[C@@H]12` the Potency was inconclusive: 29.1 µM [inhibitor, single point].
For `CCOC(=O)CSc1nc2ccc(NC(=O)CSc3nnnn3Cc3ccccc3)cc2s1`, the “activity change, negative = growth inhibition” value was inactive: -12.8%.
In the case of `CCOC(=O)c1cc2c(=O)n3cccc(C)c3nc2n(Cc2ccco2)c1=NC(=O)c1ccccc1`, the Potency is reported as inconclusive: 18.4 µM [inhibitor, single point] and inconclusive: 23.1 µM [inhibitor, partial curve].
In the case of `Cc1nc(C)c(-c2nnc(-c3ccccc3Cl)o2)cc1C(=O)NN`, the “activity change, negative = growth inhibition” value is reported as inactive: 17%.
In the case of `Cn1c(NCc2cccnc2)nc2cc(-c3cccc(C(F)(F)F)c3)sc2c1=O`, the Potency is reported as inconclusive: 16.4 µM [inhibitor, single point].
In the case of `COc1ccc(OC)c(NC(=O)CSC2=Nc3ccccc3C3=NC(CC(=O)NCc4ccco4)C(=O)N23)c1` (centres undefined), the Potency is reported as inconclusive: 20.6 µM [inhibitor, single point].
For `Cc1ccc2nc(NCc3ccco3)c(C=NCc3ccco3)c(=O)n2c1`, the “activity change, negative = growth inhibition” value was inactive: 7.72%.
For `O=C(NCc1ccc2c(c1)CCN2C(=O)c1ccncc1)c1cccc(Cl)c1`, the Potency was inconclusive: 29.1 µM [inhibitor, single point].
With `COc1ccccc1CCn1c(=O)cnc2cncnc21` the Potency was active: 5.8 µM.
With `CCCC(CCC)c1nnc(NC(=O)c2ccco2)s1` the “activity change, negative = growth inhibition” value was inactive: -24.6%.
